# Assay results: the supplement of paper PMC11417369
# ± gives the standard deviation of the averaged measurements. The list shows a part of the results.
# Test system: PfAP2-I AP2 domain 3 (GST-tagged)
# Experiment: gcPBM binding intensity (ln(normalized median fluorescence intensity)); higher = stronger DNA binding
# Procedure, shortened: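 After 1 h on an Agilent 4 × 180k array of primer-extended double-stranded 36-bp intergenic genomic probes and negative controls, bound GST-tagged P. falciparum DNA-binding domains were detected with Alexa488 anti-GST antibody and scanned at 488 nm. The domains had been expressed in E. coli, and binding took place in 1× PBS with 1% milk, 0.2 mg/ml BSA, 0.5% salmon testes DNA and 0.03% Triton X-100. Binding intensity is the highest Masliner-normalised natural-log median intensity across replicate spots of either probe orientation.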
row,Sequence,gcPBM binding intensity (ln)
1,TTATTTATTTTCATATGTACTTATTTATAGAGGTTG [XGTACX_site5599],8.04 ± 0.38
2,CATACATACATACATACACACATATATATATATATG [CACACA_site1995],8.88 ± 0.51
3,AAAAAAAAATAATATACACACTCCAATATAAAAAAT [CACACA_site3958],7.65 ± 0.51
4,CGCACTAAAAAACACACACACACACCCATATATATA [CACACA_site4152],8.31 ± 0.69
5,TGTGTATTATAAACATGTACATAAAAATACGATATT [XGTACX_site3643],8.51 ± 0.071
6,TGTTATTAAAATATAGTGCATAATTAACCATTATAA [GTGCAC_site9594],10.8 ± 0.65
7,CACACGCACGGACACACACACATATAAAATCTATAT [CACACA_site6428],8.675 ± 0.064
8,TACTTATATACACATGTATATTATATATATAATATA [XGTACX_negctrl_site335],7.89 ± 0.35
9,TAATAATATATTTGTAGTACACAATTTTTTATAACT [XGTACX_site3951],8.035 ± 0.007
10,TACTATAACAGACATACACACAAAAAAAAAAAAAAA [CACACA_site538],8.03 ± 0.73
11,ATTTTTTTTTTTTTTTTTTTTTTTTTTTAATCTGGA [CACACA_negctrl_site1347],7.56 ± 0.38
12,ATATTTAACAGGTTAAAAATATAAACAAATAAATAA [CACACA_negctrl_site907],7.58 ± 0.7
13,GAGAGGATAGTTCACAGTACTCAGTAACTCTACGGA [XGTACX_site4875],7.47 ± 0.8
14,AATAAATAAATAAATAAAACAAAGGGATTACATACA [TGCATGCA_negctrl_site513],7.64 ± 0.62
15,CACAACATATATATATATATATATATATATATGTGT [CACACA_negctrl_site28],9.005 ± 0.078
16,ATATTTTGTTATGTAGATGTTGGTAGGAATTTTGGT [CACACA_negctrl_site1104],7.79 ± 0.45
17,TACTTTTTAGGAAAGTGTACAAGCATATAAGGAATA [XGTACX_site2834],8.04 ± 0.57
18,TTAAAAAAATATTGAAGTACACACATTATAAACTTT [XGTACX_site3548],7.89 ± 0.38
19,TTTCATATATATGAAACACACAAAGGAAAAAAAATT [CACACA_site4144],8.04 ± 0.77
20,ATATAATAAAATTAATGTACATATATGTATTATATA [XGTACX_site3283],7.59 ± 0.26
21,GCTCATATGACAACAACACACAAAAAAATAAAATGA [CACACA_site714],7.8 ± 0.69
22,AACATAATCTCATATACACACAAAAATATTGAAATA [CACACA_site7085],7.7 ± 0.49

row,Sequence,gcPBM binding intensity (ln)
1,ACAAGTTTATTTGTTGCACACATATAAGTAGAGAAA [CACACA_site8994],8.99 ± 0.2
2,AAAAAAAAAAAACACACACACATAGACCTCCAATAG [CACACA_site3562],7.93 ± 0.37
3,AGGTAGAAAAAAGACACACACATTATATATATATAT [CACACA_site4367],9.43 ± 0.33
4,ATATGCTACATTATATGTACACACATATACATATAT [XGTACX_site1656],8.14 ± 0.37
5,TAATATAAAGAAATATCAATAATTTGGGCAAATGCC [GTGCAC_negctrl_site621],7.53 ± 0.45
6,AAGGTGGTTATTAAATGTACACAGACATATACAAAA [XGTACX_site3007],8.2 ± 0.17
7,TTTTATGCATGTGAAGTGCAAAATAAAAAATAAAAT [GTGCAC_site9612],10.8 ± 0.4
8,TATATTTGTTAATTTTGTACGTATGGATATACATAA [XGTACX_site5100],7.72 ± 0.38
9,TATAAATATAGAATTACACACAATGTTCTATAAATA [CACACA_site7508],7.35 ± 0.42
10,TTTGTGGTTACATGTGCACACACTTATTTCGTTCTT [CACACA_site1435],9.38 ± 0.4
11,GATATGTTTTCCTAGGTTCATGATGATAGGTAGTTT [XGTACX_negctrl_site217],7.78 ± 0.63
12,TGTTAATATATCATTATGTTATAGGTTCAGCTGGGA [CACACA_negctrl_site401],7.78 ± 0.33
13,AATATATAAATTGACACACACATATATACATATATA [CACACA_site1213],7.67 ± 0.48
14,AATTTTTATATAATTTAACACACATTTCATATAAAA [CACACA_site9018],8.1 ± 0.33
15,TTAGGATATTTATTTCGTACATATATTTTTAATTGT [XGTACX_site582],7.38 ± 0.49
16,TATAAATTATTTATCACACATAAAACAAAAATAAGA [CACACA_site5493],8.04 ± 0.4
17,TACTTCATATAATTAGCACACAATAATTTCTCATTT [CACACA_site2872],8.31 ± 0.45
18,ATATATATTAAAAATAGTACATATAATAAAAATCAT [XGTACX_site4265],7.95 ± 0.46
19,TGTATATGTTTAATTAGTACATATAAAGTAACAATA [XGTACX_site1207],7.91 ± 0.51
20,ATATGAAATATATGTAGTACACATAATTAAAAGTAG [XGTACX_site6490],8.11 ± 0.54
21,TACATATTCCTACAAATGTATAAATTATAAATATTA [XGTACX_negctrl_site30],7.38 ± 0.25
22,AACGATATAGGTACTACACACATTATGTCATCCTAT [CACACA_site7205],7.96 ± 0.61
